This is one part of the list.
tested on: PfHDP1 homeodomain (GST-tagged); assay: gcPBM binding intensity (ln(normalized median fluorescence intensity)); higher = stronger DNA binding
Summary of the method: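 Binding intensity is defined as the maximum Masliner-normalised natural-log median intensity across replicate spots for either probe orientation. It was measured on an Agilent 4 × 180k array of primer-extended double-stranded 36-bp intergenic genomic probes and negative controls, to which GST-tagged P. falciparum DNA-binding domains made in E. coli were applied for 1 h in 1× PBS with 1% milk, 0.2 mg/ml BSA, 0.5% salmon testes DNA and 0.03% Triton X-100. Detection was by Alexa488 anti-GST antibody and scanning at 488 nm.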

Sequence	gcPBM binding intensity (ln)
AAAGATAAATTAAAAAGTACATATTTATTCAATGTA [XGTACX_site8543]	6.01
ATCCATCTTTTAATTTGTACTTATTCTTTTTTCTTT [XGTACX_site5299]	7.03
ATATATATATGTAATAGTACATATGATAGTTTGTCA [XGTACX_site1545]	8.51
ATTAGTTTTATATATAGTACATATAATTTTGAAGGT [XGTACX_site7445]	7.74
TTTTTTTTCAATGGTTGTACAAAGTAAAACAACAAA [XGTACX_site1582]	6.37
TGGGTGTAGAACAATTGTACTTTGTAAAAATATAAG [XGTACX_site8464]	6.59
CACTTTTTTTTTTACTGTACATATACAAATTAAAAA [XGTACX_site1565]	6.63
TATAATAATTAAAAGTGTACTAAATTTTTACATATA [XGTACX_site2523]	6.36
TTTTATTTATCTTAATGTACACATTTATATATATAT [XGTACX_site8588]	8.49
TTAAATAAAAGGTTTAGTACTTAAAATAAGAAATGA [XGTACX_site6341]	6.34
GTAAATATAAACTCAGCACACAAACATATATATGTC [CACACA_site9326]	6.57
TTATATATATTTAAAAAAATAACATAAATAAATAAA [CACACA_negctrl_site347]	6.25
TGCAAGCTTATATAGGTGCACATGTATACGTGTTCA	8.68
TATGTAGTCACAAGGTGTACACTTTAACAAATTATG [XGTACX_site8792]	7.01
TATATACACAAACACACACACACATACACCCACATA [CACACA_site8504]	7.32
TATTAAAATTAAAAAAAAAAAAAAAAGCAATAAAAA [XGTACX_negctrl_site426]	6.24
TTCTAACTTTTAAACACACAAATATAAATAAGTATA [CACACA_site7473]	6.42
AAATGAACAAGTGGCACACACACATTATAACTAATT [CACACA_site9048]	6.17
AAGAATAATAATAAATGTACACAATATTATATATAT [XGTACX_site5525]	7.12

Sequence	gcPBM binding intensity (ln)
GAACGTATCATGTGTACACACAAATTGTTTTTTTTT [CACACA_site2020]	7.16
CCCGTAAATTATGAGTGTACGTTATTTTTTAAAATG [XGTACX_site3946]	6.64
ACATATACATATATATGTACATAAATATATATATAT [XGTACX_site8630]	8.78
GTGCATATCTGATATACACACAATAAAATAGTATGT [CACACA_site7203]	6.95
AATTATATATTTGAGAGTACATATGTAATGTTTATA [XGTACX_site6970]	6.64
TATGATACATAAATATGTACGTATAATATATATTTA [XGTACX_site7002]	6.4
CATATATTATTTATACGTACTAATAAAATAAATCAA [XGTACX_site1030]	6.24
ATATATATATATTGCACACACAATTATTATTATTAT [CACACA_site2299]	10.6
ATGCTTTTTAAATGATTGCACTAGATTGTAATATGT [GTGCAC_site9666]	8.32
TATATATATATTTTAACACACACATATATATATTTA [CACACA_site8892]	8.16
AAGCTTCATTAATATACACACATATATGCGTATATT [CACACA_site3695]	6.53
AAATTTGAAGAATATTGTACGCATAATAATTAAATA [XGTACX_site4300]	6.77
TATATAATTATAAGAACACACATATATATATATATA [CACACA_site2472]	9.28
TGTATGAAATATATTACACACATATAAAATCTATAT [CACACA_site6514]	6.47
TTTTTAATTTTTTGTTGTACATATAATATATTATTA [XGTACX_site4903]	6.68
TTGATGTTGGTAGGATGTACGGTACCGGTAAAGTTT [XGTACX_site7705]	6.55
AATAATACACAATTTTGTACGTATTTAAAATATATT [XGTACX_site45]	6.74
TAAAATATATAATAATGTACATATTTTTATTTAGGA [XGTACX_site4987]	6.11
TATTTATGAGAAATAGTGCAAAGATATGATCTTTAA	8.41

Sequence	gcPBM binding intensity (ln)
AATTAAAAACATTTCACACATAAAAATGAAATATAT [CACACA_site5199]	6.24
ATAAAATAAAAGTGTACACAAGAAAATATGTTATGT [CACACA_site6033]	7.82
TGTGCTATATTCATATGTACATATAATTATTATATA [XGTACX_site3549]	6.83
AAAAATTACCTGACTTGTACATAATTTAAGAACAAT [XGTACX_site6233]	6.26
ACGTTTGATACACATAAAGTTTTCCTTTGAATGTAC [CACACA_negctrl_site106]	6.68
GGTATATTAAAATAGGTGCATAAAACTAAGAGAAAA [GTGCAC_site9781]	10.4
ATAATATATTTATAATGTACATAAGAACAAATTAAA [XGTACX_site1745]	6.67
CATATTAATATTATGGGTACATATAAATTTACATTC [XGTACX_site687]	6.6
TCTTTTTTTATTTTATTTTTTTTTTTTAAATAATTC [TGCATGCA_negctrl_site372]	6.3
ATTATAATATTGTTATGTACATAAAAATTATTGAAT [XGTACX_site4476]	6.79
AAAACATAAATACATACACACATAATATATATTAAT [CACACA_site109]	6.77
AACATGAAAGATAGCAAAAAAAAAAAAAAAAAAAAA [TGCATGCA_negctrl_site607]	5.94
AAAAAATAATAAATCACACATATTATATATATATAT [CACACA_site5838]	8.94
AAATTATAATATAATACACACATAAAAAAAAAATCA [CACACA_site3634]	6.69
TATATATATATATATTGTACACATATATATTTACGA [XGTACX_site4791]	9.08
ATAATAAAAATAAGAGAATAAAAATGCAATTTAATG [CACACA_negctrl_site878]	7.02
TCCTTTATTTTTAAATGTACAAATATTATCTCCTCA [XGTACX_site5856]	6.5
TTTTTTTATTATCATGCACACATTTTTTTTTTTTAC [CACACA_site2253]	8.72
ACTTGACACGGACACACACACATATATAAAAAAAAA [CACACA_site4576]	6.89

— the supplement of paper PMC11417369
